The record followed here is patent US20050282889A1, “Intracorporeal medicaments for photodynamic treatment of disease” (priority 1996, published 2005).

The subject of this test is various other gram positive and gram negative bacteria. Kind of test: Photodynamic eradication of microbes. Particulars: aqueous solution approximately 1 to 10 micromolar; green light 500-600 nm.

With `O=C1OC2(c3cc(I)c(O)c(I)c3Oc3c2cc(I)c(O)c3I)c2c(Cl)c(Cl)c(Cl)c(Cl)c21` [Rose Bengal, 4,5,6,7-tetrachloro-2′,4′,5′,7′-Tetraiodofluorescein], the Eradication of microbes entry is “substantial or complete eradication”.
